Structures are written as SMILES. Hit rate of the full screen: of about 310,000 compounds, about 2,200 (0.71%) showed an effect of 50% or more. Effects have a minus sign here. This is one part of the list.

The text below walks through data of article PMC4336329 (PLoS ONE, 2015).

human ether-à-go-go-related gene (hERG) potassium channel, sequence (Q12809 whole entry, looked up): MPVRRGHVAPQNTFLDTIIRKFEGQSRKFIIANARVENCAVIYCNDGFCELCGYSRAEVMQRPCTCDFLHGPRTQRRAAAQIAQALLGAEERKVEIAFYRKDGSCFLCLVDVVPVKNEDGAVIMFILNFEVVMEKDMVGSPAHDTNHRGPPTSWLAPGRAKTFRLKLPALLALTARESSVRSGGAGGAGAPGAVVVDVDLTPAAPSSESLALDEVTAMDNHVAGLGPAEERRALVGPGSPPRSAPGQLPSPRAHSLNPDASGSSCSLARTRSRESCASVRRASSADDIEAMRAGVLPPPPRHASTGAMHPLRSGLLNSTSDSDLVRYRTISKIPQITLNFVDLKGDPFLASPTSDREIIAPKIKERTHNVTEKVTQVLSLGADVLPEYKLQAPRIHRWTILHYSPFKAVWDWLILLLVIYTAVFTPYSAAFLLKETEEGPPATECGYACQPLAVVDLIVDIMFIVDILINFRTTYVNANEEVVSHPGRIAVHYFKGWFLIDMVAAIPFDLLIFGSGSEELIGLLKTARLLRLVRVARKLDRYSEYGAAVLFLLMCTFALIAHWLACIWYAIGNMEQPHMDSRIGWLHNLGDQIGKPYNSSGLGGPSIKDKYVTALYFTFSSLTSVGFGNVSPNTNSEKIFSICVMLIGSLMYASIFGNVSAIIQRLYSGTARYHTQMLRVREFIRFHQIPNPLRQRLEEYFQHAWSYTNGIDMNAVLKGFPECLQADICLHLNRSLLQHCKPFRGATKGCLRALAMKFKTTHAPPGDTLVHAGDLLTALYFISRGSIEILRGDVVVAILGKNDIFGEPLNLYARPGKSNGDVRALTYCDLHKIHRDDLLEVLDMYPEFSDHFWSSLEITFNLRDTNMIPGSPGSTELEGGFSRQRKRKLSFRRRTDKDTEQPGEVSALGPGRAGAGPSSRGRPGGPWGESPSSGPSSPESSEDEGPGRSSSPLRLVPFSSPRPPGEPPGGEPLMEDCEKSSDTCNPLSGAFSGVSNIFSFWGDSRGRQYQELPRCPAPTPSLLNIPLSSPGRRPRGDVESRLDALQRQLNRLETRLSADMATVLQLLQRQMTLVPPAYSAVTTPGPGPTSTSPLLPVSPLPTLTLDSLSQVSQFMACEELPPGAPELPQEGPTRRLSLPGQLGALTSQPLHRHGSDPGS

This experiment has as its target human ether-à-go-go-related gene (hERG) potassium channel (human, UniProt Q12809). The experiment is described as follows: primary screen, population patch clamp on CHO cells stably expressing hERG.
Take `COC(=O)c1ccc(C(=O)NC2CC(C)(C)Cc3c2cnn3-c2ccc(F)cc2)nc1` (stereo not shown): the “hERG current change (%, negative = inhibition) at 1uM” value is -0.769%. Then `O=C(c1cc(-c2ccc(Br)cc2)nc2ccccc12)N1CCN(c2ccccc2O)CC1`, with 5.36%. Then `Cc1cc(N2CCCC2)ccc1NC(=O)COc1cccc(C(F)(F)F)c1`, with 17.5%; and `CC(C)N(Cc1nc(-c2ccc(Cl)cc2)no1)C(=O)CCC1CCCC1`, with 4.93%. The figure for `O=C(C[n+]1cccc(Br)c1)c1cccs1.[Br-]` is 11.5%; for `CCOC(=O)Cc1nnc(NC(=O)C23CC4CC(CC(C4)C2)C3)s1` it is 5.96%.

As for `CCOc1cccc(C(=O)Nc2ccccc2C(=O)N2CCN(C)CC2)c1`, the “hERG current change (%, negative = inhibition) at 1uM” value was 5.41%. Then `CCO[C@H]1OC(C(N)=O)=C[C@@H](c2ccc(Br)cc2)[C@@H]1CCCO`, with -7.37%; and `Cc1nc2nc(-c3ccc(F)cc3)cn2nc1C`, with 4.73%; and `COc1cc(OC)cc(C(=O)N[C@H](C(=O)OCC(=O)Nc2ccc(C)cc2C)C(C)C)c1`, with -0.106%. As for `CCOc1ccc2c(c1)C(=NNC(=O)c1ccncc1)c1cc(OCC)ccc1-2`, the “hERG current change (%, negative = inhibition) at 1uM” value is reported as -0.661%. Consider `Cc1cccc(C(=O)C2CCN(S(=O)(=O)c3ccc(C(=O)O)cc3)CC2)c1`, for which the “hERG current change (%, negative = inhibition) at 1uM” value is recorded as 5.21%. Then `O=C(NNC(=O)c1ccc(Br)cc1)c1ccncc1`, with 13.1%; and `O=C(NC1CCCCC1)C1CCN(C(=O)c2ccccc2Cl)CC1`, with 17.1%; and `O=C(CCl)NC(Cc1ccccc1)c1ccccc1` (stereo not shown), with 9.18%. The figure for `CN(C)C(CNC(=O)c1cccc(NS(=O)(=O)c2ccc(Br)cc2)c1)c1ccco1` (stereo not shown) is -5.22%. The figure for `COC(=O)CCC(=O)OC1(C)C(=O)C=C2C=C(C3CC3)N(CCc3c[nH]c4ccccc34)C=C2C1=O` (stereo not shown) is 10.8%; for `COc1cccc(C2NC(=S)NC3=C2CCc2ccccc23)c1` (stereo not shown) it is 3.56%; for `CCC1=NC(c2ccc(OC)c(OC)c2)N(O)C1(C)C` (stereo not shown) it is 5.15%. Turning to `CC(=O)c1csc(COc2ccccc2)n1`, the “hERG current change (%, negative = inhibition) at 1uM” value turned out to be 13.3%. The figure for `Cc1ccc(C(=O)NCc2ccc3c(c2)OCO3)c(C)c1` is 12.3%; for `CC(=O)Oc1ccc(C(=O)NC(C)CCc2ccccc2)cc1` (stereo not shown) it is 14%; for `Cc1ccc(Cl)cc1NC(=O)CC1NC2CCCCC2NC1=O` (stereo not shown) it is 14.9%.

With `CC(C)c1ccccc1OCC(=O)Nc1ccc2[nH]ncc2c1`, the “hERG current change (%, negative = inhibition) at 1uM” value was found to be 10.3%. The figure for `NS(=O)(=O)c1ccc(CCNC(=O)c2ccc(=O)[nH]c2)cc1` is 12.7%; for `CN1CCN(C(=O)c2ccccc2Nc2ccc(SC(F)F)cc2)CC1.Cl` it is 9.91%. As for `Cn1c(=O)c2c(SCC(=O)NCC3CCCO3)nc(-c3ccccc3Cl)nc2n(C)c1=O` (stereo not shown), the “hERG current change (%, negative = inhibition) at 1uM” value is on record as -6.21%. The figure for `CCc1c(C)[nH]n(CCC#N)c1=O` is 2.22%; for `CCN(CC)CCOCCOc1cc(C)c(Cl)c(C)c1` it is -1.67%.

For the compound `CCOc1cc(/C=N/Nc2nc(N3CCCCC3)nc(N3CCCCC3)n2)ccc1OC(=O)c1ccco1`, the “hERG current change (%, negative = inhibition) at 1uM” value was found to be 17.3%.

As for `COc1ccccc1OCC(O)Cn1nc(C)cc1C` (stereo not shown), the “hERG current change (%, negative = inhibition) at 1uM” value was 14.5%. The figure for `Cc1csc(NC(=O)C2CCCCN2S(=O)(=O)c2ccccc2)n1` (stereo not shown) is 7.88%. Then `O=C(C/C=N\OCc1c(Cl)cccc1Cl)Oc1ccc(Cl)cc1Cl`, with 8.47%. The figure for `Cc1nc(N2CCCCC2)nc(N2CCCCC2)c1C=O` is 19.1%; for `Cc1ccc(S(=O)(=O)N2CCN(C(=O)CCc3nc4ccccc4c(=O)[nH]3)CC2)c(C)c1` it is -2.92%; for `CCOC(=O)C1CCCN(C(=O)Cn2nc(Cc3cccnc3)c3ccccc3c2=O)C1` (stereo not shown) it is 11.1%.

Take `COc1ccc(C2c3ccc(O)cc3Oc3ncn(CCCO)c(=N)c32)cc1OC` (stereo not shown): the “hERG current change (%, negative = inhibition) at 1uM” value stood at 7.81%. The figure for `CCOC(=O)c1cc(-c2ccc(/C=N\n3cnnc3)o2)ccc1Cl` is -9.22%. The figure for `O=C(CCn1c(=O)c2ccccc2n(Cc2cc(=O)n3ccccc3n2)c1=O)NCc1ccco1` is 1.3%. Turning to `Cc1ccc(-c2nnc(-c3ccccc3)o2)cc1`, the “hERG current change (%, negative = inhibition) at 1uM” value is listed as 14.6%. Then `CCc1cc(=O)oc2cc(OCC(=O)NCCCN3CCCC3=O)ccc12`, with 7.58%; and `CSc1ccccc1C(=O)NCC(c1ccco1)N1CCCCC1` (stereo not shown), with 6.8%.

Regarding `O=C(O)C1CCCCN1S(=O)(=O)c1cccc2nsnc12` (stereo not shown), the “hERG current change (%, negative = inhibition) at 1uM” value is recorded as 7.5%.

Take `Cc1cc(Cl)ccc1NC(=O)CCC(=O)N/N=C/c1cccnc1`: the “hERG current change (%, negative = inhibition) at 1uM” value was 5.63%. `CN1CCC(NC(=O)c2cc(-c3cccc(Br)c3)nc3ccccc23)CC1`: the “hERG current change (%, negative = inhibition) at 1uM” value is reported as -31.3%. The figure for `CCOc1ccc(CNS(=O)(=O)c2c(C(=O)N3CCCC3)c(C)n(C)c2C)cc1OC` is 6.44%; for `CN(C)CC(C)(C)CNC(=S)Nc1ccc(S(=O)(=O)N2CCOCC2)cc1` it is 5.77%. Consider `COc1ccc(/C=C/C(=O)N2CCNC(=O)C2)c(OC)c1`, for which the “hERG current change (%, negative = inhibition) at 1uM” value stood at 19%. In the case of `O=C(N(c1ccccn1)c1ccccn1)C12CC3CC(CC(C3)C1)C2`, the “hERG current change (%, negative = inhibition) at 1uM” value is reported as 0.429%.

With `COc1cccc(N2CCN(C(=O)CCC(=O)c3ccc(Cl)s3)CC2)c1`, the “hERG current change (%, negative = inhibition) at 1uM” value was found to be 3.04%. Take `COC(=O)N/N=C\c1cc2c(cc1Br)OCO2`: the “hERG current change (%, negative = inhibition) at 1uM” value was determined as 6.41%.

On to `CCN1C(=O)/C(=C\N2CCN(c3cccc(Cl)c3)CC2)SC1=S`, for which the “hERG current change (%, negative = inhibition) at 1uM” value was determined as 6.97%. The figure for `N#Cc1cc(-c2ccccc2)oc1/N=C/c1ccccc1O` is -0.45%; for `O=[N+]([O-])/C(C(Cl)=C(Cl)Cl)=C(/Sc1ccccc1)N1CCCCC1` it is 10.4%. Then `CC(Oc1ccccc1)C(=O)Nc1ccc(NC(=O)c2ccccc2)cc1` (stereo not shown), with 9.77%; and `CCOC(=O)CN1C(=O)C(=O)c2cc(C)ccc21`, with 11.9%. Then `COc1ccc(-n2c(SCC(=O)NCC3CCCO3)nc3c([nH]c4ccccc43)c2=O)cc1OC` (stereo not shown), with 15.9%; and `CCN(CC)c1ccc(NC(=O)CSc2nc3nc(C)cc(C)c3c(=O)[nH]2)cc1`, with 0.788%. Take `CCn1nc(NS(=O)(=O)c2ccc([N+](=O)[O-])cc2)c2cc3cc(C)ccc3nc21`: the “hERG current change (%, negative = inhibition) at 1uM” value stood at 9.86%. The figure for `CC(C)c1nc(CNC(=O)C2CCC(=O)N(CCc3cccc(F)c3)C2)cs1` (stereo not shown) is 7.72%.

On to `CCOc1ccc(OCC)c(NC(=O)Nc2ccc3c(c2)N(C)C(=O)CS3)c1`, for which the “hERG current change (%, negative = inhibition) at 1uM” value is listed as 5.78%. For `Cc1noc(/C=C/c2ccccc2F)c1S(=O)(=O)N1CCC(C(=O)N2CCN(C)CC2)CC1`, the “hERG current change (%, negative = inhibition) at 1uM” value worked out at 7.3%. As to `NC(=O)COc1ccc(C(=O)/C=C2/C(=O)Nc3ccccc32)cc1`, the “hERG current change (%, negative = inhibition) at 1uM” value is given as 8.28%. The figure for `N#CC(c1nc2ccccc2nc1N1CCOCC1)S(=O)(=O)c1ccccc1` (stereo not shown) is 13.6%; for `C=C(C)C1CCC(C)=C1COC(=O)Nc1ccccc1` (stereo not shown) it is 11.5%. The figure for `COc1ccc(/C=C2\SC(N3CCCCC3)=NC2=O)cc1` is 19.1%; for `CC(=O)c1ccc(NC(=O)C(C)Oc2ccc(N(C)S(=O)(=O)c3ccc(C)cc3)cc2)cc1` (stereo not shown) it is 7.12%; for `CCOC(=O)CC(C#N)c1cn(C)c2ccccc12` (stereo not shown) it is -0.913%.

As to `CCC(=O)Nc1nc(CC(=O)Nc2ccccc2OC)cs1`, the “hERG current change (%, negative = inhibition) at 1uM” value is listed as -1.9%. In the case of `O=C(CCN1C(=O)/C(=C/c2ccccc2)SC1=S)Nc1cccnc1`, the “hERG current change (%, negative = inhibition) at 1uM” value is recorded as 10.6%.

For `Cc1ccc(-n2nc3c(c2NC(=O)c2ccc4c(c2)OCO4)CSC3)c(C)c1`, the “hERG current change (%, negative = inhibition) at 1uM” value was 1.85%. The figure for `CCOc1ccc(NC(=O)CN(C)C(=O)C2CC(=O)N(Cc3ccco3)C2)cc1OCC` (stereo not shown) is 6.7%; for `CN1CCN(Cn2cc(/C=C/C(=O)c3ccccc3)c3ccccc32)CC1` it is 10.1%. The figure for `C/C(Cc1ccccc1)=N\NC(=O)CNC(=O)c1ccc(Br)cc1` is 1.18%; for `CCN1CCCC1Cn1cnc2c([nH]c3cccc(Cl)c32)c1=O` (stereo not shown) it is -38.7%; for `Cc1cc(C)n2nc(N)c(N=Nc3ccccc3)c2n1` it is 9.32%. The figure for `CC(C)CN(CCNC(=O)CN1N=C(c2ccc(Cl)cc2)CCC1=O)CC(C)C` is 12.3%; for `Cc1ccc(N(CC(=O)NC(C)(C)C)C(=O)CNC(=O)c2cccs2)cc1` it is 7.4%; for `NC(=O)Cn1c(S(=O)(=O)Cc2ccccc2)nc2ccccc21` it is 8.07%.

In the case of `CCCCNC(=O)c1onc(CSc2cccc(OC)c2)c1C(=O)O`, the “hERG current change (%, negative = inhibition) at 1uM” value is reported as 9.58%.

Consider `Cc1cc(C)c2c(CC(=O)Nc3nccs3)coc2c1`, for which the “hERG current change (%, negative = inhibition) at 1uM” value worked out at 11.1%.

As to `COc1cc(C(=O)Nc2cccc(S(=O)(=O)NCc3ccco3)c2)cc(OC)c1OC`, the “hERG current change (%, negative = inhibition) at 1uM” value is given as -2.69%. On to `CC(C)CC(=O)NC(NC(=S)Nc1ccccc1)C(Cl)(Cl)Cl` (stereo not shown), for which the “hERG current change (%, negative = inhibition) at 1uM” value amounted to 6.59%. The figure for `O=C(CN1C(=O)NC(c2ccccc2)(c2ccccc2)C1=O)NC1CCCC1` is 11.2%. Then `O=C(C1CC(=O)N(c2ccc(Cl)cc2)C1)N1CCN(Cc2ccc3c(c2)OCO3)CC1` (stereo not shown), with -33.4%. The figure for `CCc1ccc(N2CC(C(=O)Nc3ccccc3F)CC2=O)cc1` (stereo not shown) is -9.77%. Regarding `O=C(Nc1ccccc1)c1cc(-c2ccccc2Cl)no1`, the “hERG current change (%, negative = inhibition) at 1uM” value is -7.92%.

On to `CCCCn1c(CCC(=O)O)ccc1-c1cccs1`, for which the “hERG current change (%, negative = inhibition) at 1uM” value was 12.9%.
